These are yes or no findings as the source states them, for the method shown. In cells and extracts the contact can be indirect. Some entries that bind do so weakly or less than the wild type. For part of these data: Where a sequence is shown, tags or fusion partners need not be part of it.

Assay [1] has as its target T1, POR-Flag (mouse) (UniProt P37040).
T1 sequence: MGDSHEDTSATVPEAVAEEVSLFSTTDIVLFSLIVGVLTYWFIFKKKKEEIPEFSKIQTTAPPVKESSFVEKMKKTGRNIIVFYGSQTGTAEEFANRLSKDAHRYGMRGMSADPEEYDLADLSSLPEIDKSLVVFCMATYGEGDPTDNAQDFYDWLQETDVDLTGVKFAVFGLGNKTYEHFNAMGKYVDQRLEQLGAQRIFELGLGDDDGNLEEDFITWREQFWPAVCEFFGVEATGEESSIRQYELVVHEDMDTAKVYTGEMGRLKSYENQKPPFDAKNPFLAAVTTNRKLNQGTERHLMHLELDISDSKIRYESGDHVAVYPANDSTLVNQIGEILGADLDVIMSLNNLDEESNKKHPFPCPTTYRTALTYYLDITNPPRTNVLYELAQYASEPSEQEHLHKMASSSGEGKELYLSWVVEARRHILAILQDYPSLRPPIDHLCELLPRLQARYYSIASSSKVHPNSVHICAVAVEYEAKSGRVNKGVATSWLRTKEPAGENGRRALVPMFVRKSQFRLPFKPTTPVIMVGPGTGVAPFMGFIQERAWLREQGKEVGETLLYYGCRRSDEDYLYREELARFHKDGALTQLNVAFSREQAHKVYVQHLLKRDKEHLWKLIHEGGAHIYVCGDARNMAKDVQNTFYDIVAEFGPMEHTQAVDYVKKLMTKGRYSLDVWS
Description: co-IP; HtTA cells co-transfected with H-rev107-myc (wild type or point mutant) and POR-Flag for 24 h; modified RIPA lysate (500 μg protein); anti-MYC or anti-FLAG antibody, protein G plus/protein A agarose, 4°C; western blot with anti-FLAG or anti-MYC. A general note: In western blotting, separated proteins are transferred to a membrane and probed.

Assay [2] deals with T2, endogenous POR (Huh7 cells) (human (endogenous in Huh7)) (UniProt P16435).
T2 sequence: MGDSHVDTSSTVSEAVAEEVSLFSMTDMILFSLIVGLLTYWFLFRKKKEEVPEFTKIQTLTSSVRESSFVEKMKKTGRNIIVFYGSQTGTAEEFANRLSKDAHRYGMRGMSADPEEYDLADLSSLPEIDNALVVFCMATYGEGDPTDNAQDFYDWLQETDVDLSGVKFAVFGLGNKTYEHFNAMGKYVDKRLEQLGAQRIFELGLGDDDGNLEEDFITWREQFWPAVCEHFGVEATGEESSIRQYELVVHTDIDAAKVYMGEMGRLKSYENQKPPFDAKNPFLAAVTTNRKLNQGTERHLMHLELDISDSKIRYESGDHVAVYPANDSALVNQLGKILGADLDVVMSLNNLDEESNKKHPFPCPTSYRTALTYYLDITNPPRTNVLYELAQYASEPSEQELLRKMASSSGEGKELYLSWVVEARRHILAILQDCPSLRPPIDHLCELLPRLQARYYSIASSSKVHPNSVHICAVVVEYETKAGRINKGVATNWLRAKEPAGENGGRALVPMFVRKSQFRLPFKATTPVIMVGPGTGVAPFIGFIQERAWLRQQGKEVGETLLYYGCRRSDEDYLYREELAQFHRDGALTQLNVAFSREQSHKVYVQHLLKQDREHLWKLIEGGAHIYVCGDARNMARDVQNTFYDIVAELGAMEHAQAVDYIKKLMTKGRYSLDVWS
Description: co-IP; endogenous proteins, Huh7 lysate (5 mg protein); anti-H-rev107 or anti-POR antibody (normal rabbit IgG as control) 12 h at 4°C, protein G plus/protein A agarose; western blot.

The target of assay [3] is T3, GST-H-rev107 (UniProt Q8R3U1).
T3 sequence: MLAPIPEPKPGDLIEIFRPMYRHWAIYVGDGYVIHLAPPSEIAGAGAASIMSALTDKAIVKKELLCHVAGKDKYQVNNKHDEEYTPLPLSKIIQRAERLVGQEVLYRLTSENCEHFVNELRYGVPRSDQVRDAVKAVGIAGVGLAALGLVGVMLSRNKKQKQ
Description: pull-down; purified GST fusion (10 μg GST-POR deletions; GST-H-rev107 deletion variants) as bait, partner in vitro transcribed and translated; 4°C for 2 h in 50 mM HEPES pH 7.4, 150 mM NaCl, 1 mM EDTA, 1 mM EGTA, 10% glycerol, 1% Triton X-100; western blot with anti-FLAG or anti-MYC; only the target purified.

Assay [4] deals with T4, GST-H-rev107_(1–132) (UniProt Q8R3U1).
T4 sequence: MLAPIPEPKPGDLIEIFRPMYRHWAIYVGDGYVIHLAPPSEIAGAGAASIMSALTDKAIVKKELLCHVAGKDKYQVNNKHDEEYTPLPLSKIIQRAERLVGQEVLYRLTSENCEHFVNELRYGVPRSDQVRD
The assay is described as above.

Assay [5] has as its target T5, GST-H-rev107_(1–48) (UniProt Q8R3U1).
T5 sequence: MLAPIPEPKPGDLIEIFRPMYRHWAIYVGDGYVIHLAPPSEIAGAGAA
The description is as above.

For assay [6], the target named is T6, H-rev107-myc (UniProt Q8R3U1).
T6 sequence: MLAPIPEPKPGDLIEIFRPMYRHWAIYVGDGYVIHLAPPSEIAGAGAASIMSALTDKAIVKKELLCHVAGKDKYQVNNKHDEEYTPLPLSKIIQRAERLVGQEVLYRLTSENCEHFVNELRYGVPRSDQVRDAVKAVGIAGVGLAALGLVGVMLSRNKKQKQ
Kind of assay: co-IP; HtTA cells co-transfected with H-rev107-myc (wild type or point mutant) and POR-Flag for 24 h; modified RIPA lysate (500 μg protein); anti-MYC or anti-FLAG antibody, protein G plus/protein A agarose, 4°C; western blot with anti-FLAG or anti-MYC.

For assay [7], the target named is T7, endogenous H-rev107 (Huh7 cells) (human (endogenous in Huh7)) (UniProt P53816).
T7 sequence: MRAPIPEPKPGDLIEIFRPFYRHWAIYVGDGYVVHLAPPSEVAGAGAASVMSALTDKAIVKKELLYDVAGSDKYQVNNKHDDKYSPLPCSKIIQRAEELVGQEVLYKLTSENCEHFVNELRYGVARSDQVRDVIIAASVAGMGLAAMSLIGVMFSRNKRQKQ
Description: co-IP; endogenous proteins, Huh7 lysate (5 mg protein); anti-H-rev107 or anti-POR antibody (normal rabbit IgG as control) 12 h at 4°C, protein G plus/protein A agarose; western blot.

B1: H-rev107-myc (protein, UniProt Q8R3U1 1-162)
chain: MLAPIPEPKPGDLIEIFRPMYRHWAIYVGDGYVIHLAPPSEIAGAGAASIMSALTDKAIVKKELLCHVAGKDKYQVNNKHDEEYTPLPLSKIIQRAERLVGQEVLYRLTSENCEHFVNELRYGVPRSDQVRDAVKAVGIAGVGLAALGLVGVMLSRNKKQKQ
Regarding B1, the binding result in assay [1] is “binds”.

B2: H-rev107 H23L (myc-tagged) (protein, UniProt Q8R3U1 1-162)
chain: MLAPIPEPKPGDLIEIFRPMYRLWAIYVGDGYVIHLAPPSEIAGAGAASIMSALTDKAIVKKELLCHVAGKDKYQVNNKHDEEYTPLPLSKIIQRAERLVGQEVLYRLTSENCEHFVNELRYGVPRSDQVRDAVKAVGIAGVGLAALGLVGVMLSRNKKQKQ
Regarding B2, the binding entry in assay [1] was “binds”.

B3: H-rev107 C113S (myc-tagged) (protein, UniProt Q8R3U1 1-162)
chain: MLAPIPEPKPGDLIEIFRPMYRHWAIYVGDGYVIHLAPPSEIAGAGAASIMSALTDKAIVKKELLCHVAGKDKYQVNNKHDEEYTPLPLSKIIQRAERLVGQEVLYRLTSENSEHFVNELRYGVPRSDQVRDAVKAVGIAGVGLAALGLVGVMLSRNKKQKQ
Turning to B3, the binding result in assay [1] is on record as “binds”.

B4: endogenous H-rev107 (Huh7 cells) (protein, UniProt P53816 1-162)
chain: MRAPIPEPKPGDLIEIFRPFYRHWAIYVGDGYVVHLAPPSEVAGAGAASVMSALTDKAIVKKELLYDVAGSDKYQVNNKHDDKYSPLPCSKIIQRAEELVGQEVLYKLTSENCEHFVNELRYGVARSDQVRDVIIAASVAGMGLAAMSLIGVMFSRNKRQKQ
For B4, in assay [2], the binding result is “binds”.

B5: POR-FLAG, in vitro transcribed and translated (enzyme, UniProt P37040 1-678)
chain: MGDSHEDTSATVPEAVAEEVSLFSTTDIVLFSLIVGVLTYWFIFKKKKEEIPEFSKIQTTAPPVKESSFVEKMKKTGRNIIVFYGSQTGTAEEFANRLSKDAHRYGMRGMSADPEEYDLADLSSLPEIDKSLVVFCMATYGEGDPTDNAQDFYDWLQETDVDLTGVKFAVFGLGNKTYEHFNAMGKYVDQRLEQLGAQRIFELGLGDDDGNLEEDFITWREQFWPAVCEFFGVEATGEESSIRQYELVVHEDMDTAKVYTGEMGRLKSYENQKPPFDAKNPFLAAVTTNRKLNQGTERHLMHLELDISDSKIRYESGDHVAVYPANDSTLVNQIGEILGADLDVIMSLNNLDEESNKKHPFPCPTTYRTALTYYLDITNPPRTNVLYELAQYASEPSEQEHLHKMASSSGEGKELYLSWVVEARRHILAILQDYPSLRPPIDHLCELLPRLQARYYSIASSSKVHPNSVHICAVAVEYEAKSGRVNKGVATSWLRTKEPAGENGRRALVPMFVRKSQFRLPFKPTTPVIMVGPGTGVAPFMGFIQERAWLREQGKEVGETLLYYGCRRSDEDYLYREELARFHKDGALTQLNVAFSREQAHKVYVQHLLKRDKEHLWKLIHEGGAHIYVCGDARNMAKDVQNTFYDIVAEFGPMEHTQAVDYVKKLMTKGRYSLDVWS
As for B5, the values for the binding result in assay [3], in assay [4] and in assay [5] were “binds”, “binds” and “no binding”, respectively.

B6: POR-Flag (enzyme, UniProt P37040 1-678)
chain: MGDSHEDTSATVPEAVAEEVSLFSTTDIVLFSLIVGVLTYWFIFKKKKEEIPEFSKIQTTAPPVKESSFVEKMKKTGRNIIVFYGSQTGTAEEFANRLSKDAHRYGMRGMSADPEEYDLADLSSLPEIDKSLVVFCMATYGEGDPTDNAQDFYDWLQETDVDLTGVKFAVFGLGNKTYEHFNAMGKYVDQRLEQLGAQRIFELGLGDDDGNLEEDFITWREQFWPAVCEFFGVEATGEESSIRQYELVVHEDMDTAKVYTGEMGRLKSYENQKPPFDAKNPFLAAVTTNRKLNQGTERHLMHLELDISDSKIRYESGDHVAVYPANDSTLVNQIGEILGADLDVIMSLNNLDEESNKKHPFPCPTTYRTALTYYLDITNPPRTNVLYELAQYASEPSEQEHLHKMASSSGEGKELYLSWVVEARRHILAILQDYPSLRPPIDHLCELLPRLQARYYSIASSSKVHPNSVHICAVAVEYEAKSGRVNKGVATSWLRTKEPAGENGRRALVPMFVRKSQFRLPFKPTTPVIMVGPGTGVAPFMGFIQERAWLREQGKEVGETLLYYGCRRSDEDYLYREELARFHKDGALTQLNVAFSREQAHKVYVQHLLKRDKEHLWKLIHEGGAHIYVCGDARNMAKDVQNTFYDIVAEFGPMEHTQAVDYVKKLMTKGRYSLDVWS
For the molecule B6, the binding result in assay [6] was “binds”.

B7: endogenous POR (Huh7 cells) (enzyme, UniProt P16435 1-677)
chain: MGDSHVDTSSTVSEAVAEEVSLFSMTDMILFSLIVGLLTYWFLFRKKKEEVPEFTKIQTLTSSVRESSFVEKMKKTGRNIIVFYGSQTGTAEEFANRLSKDAHRYGMRGMSADPEEYDLADLSSLPEIDNALVVFCMATYGEGDPTDNAQDFYDWLQETDVDLSGVKFAVFGLGNKTYEHFNAMGKYVDKRLEQLGAQRIFELGLGDDDGNLEEDFITWREQFWPAVCEHFGVEATGEESSIRQYELVVHTDIDAAKVYMGEMGRLKSYENQKPPFDAKNPFLAAVTTNRKLNQGTERHLMHLELDISDSKIRYESGDHVAVYPANDSALVNQLGKILGADLDVVMSLNNLDEESNKKHPFPCPTSYRTALTYYLDITNPPRTNVLYELAQYASEPSEQELLRKMASSSGEGKELYLSWVVEARRHILAILQDCPSLRPPIDHLCELLPRLQARYYSIASSSKVHPNSVHICAVVVEYETKAGRINKGVATNWLRAKEPAGENGGRALVPMFVRKSQFRLPFKATTPVIMVGPGTGVAPFIGFIQERAWLRQQGKEVGETLLYYGCRRSDEDYLYREELAQFHRDGALTQLNVAFSREQSHKVYVQHLLKQDREHLWKLIEGGAHIYVCGDARNMARDVQNTFYDIVAELGAMEHAQAVDYIKKLMTKGRYSLDVWS
In the case of B7, in assay [7], the binding entry was “binds”.

For the origin of these results see paper PMC4575093.
